# PubChem BioAssay AID1745853 (National Center for Advancing Translational Sciences (NCATS), 2022)
# Where “and” joins values, the source holds several entries; their conditions need not be identical. Equal values may be shown once. The list shows a part of the results. Shown are side measurements of this screen, not its main read-out; they come without a call.
# Tests used:
# Experiment in all cases: Primary Screen for Target Class Profiling of Small Molecule Inhibitors of Methyltransferases
# [1] = target: Glycine N-methyltransferase (Homo sapiens) (UniProt Q14749); conditions: purified enzyme, MTase-Glo SAH luminescence; measured here: GNMT inhibition; at 40 µM; stronger effect = lower value
# Outline: (§1)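 Each enzyme was reacted with SAM and its substrate, with compounds tested once at 40 uM; SAH formed was read by MTase-Glo luminescence.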
# [2] = target: Guanidinoacetate N-methyltransferase (Homo sapiens) (UniProt Q14353); conditions: purified enzyme, MTase-Glo SAH luminescence; measured here: GAMT inhibition; at 40 µM; stronger effect = lower value
# Outline: as §1
# [3] = target: Histamine N-methyltransferase (Homo sapiens) (UniProt P50135); conditions: purified enzyme, MTase-Glo SAH luminescence; measured here: HNMT inhibition; at 40 µM; stronger effect = lower value
# Outline: as §1
# [4] = target: Nicotinamide N-methyltransferase (Homo sapiens) (UniProt P40261); conditions: purified enzyme, MTase-Glo SAH luminescence; measured here: NNMT inhibition; at 40 µM; stronger effect = lower value
# Outline: as §1
# [5] = target: Phenylethanolamine N-methyltransferase (Homo sapiens) (UniProt P11086); conditions: purified enzyme, MTase-Glo SAH luminescence; measured here: PNMT inhibition; at 40 µM; stronger effect = lower value
# Outline: as §1
# % is set by controls: 0 for no effect and ±100 for the full control effect.
SMILES,"activity change, negative = inhibition [1]","activity change, negative = inhibition [2]","activity change, negative = inhibition [3]","activity change, negative = inhibition [4]","activity change, negative = inhibition [5]"
Cc1cc(C)c2c(c1)C(N(Cc1cc(C(F)(F)F)cc(C(F)(F)F)c1)c1nnn(C)n1)CCCN2CC1CCC(C(=O)O)CC1 (stereo not given),-3.07%,-0.911%,3.79%,-26.2%,-3.77%
CCOc1ccccc1CN1C(=O)c2cc3oc(C)cc3n2CC1(C)C(=O)NC1CCCCCC1 (stereo not given),-0.328%,0%,2.27%,0.215%,-0.23%
COc1ccc(C2c3cccn3-c3sc4c(c3CN2C(=O)NCc2ccc(F)cc2)CCCC4)cc1 (stereo not given),-2.61%,4.01%,4.47%,-0.009%,0.383%
Cc1cnn(CCC(=O)NC2CCN(c3ccc(=O)n(C)n3)CC2)c1,-3.45%,0.321%,1.59%,-2.72%,-0.922%
CCOC(=O)c1cc2n(n1)CC(C)(C(=O)NCCOC)N(c1ccc(OC)cc1)C2=O (stereo not given),1.65%,0.945%,5.22%,0.537%,2.73%
O=C1CN(Cc2ccc(F)cc2Cl)S(=O)(=O)c2ccccc2N1Cc1ccc(F)cc1,14.4%,0%,9.94%,-1.23%,1.75%
N#CC1C(=O)N=C(c2cc(Cl)ccc2O)C=C1c1cc(OCc2ccccc2)cc(OCc2ccccc2)c1 (stereo not given),-8.83%,-27.8%,8.51%,-25%,-2.92%
C=C1C(=O)O[C@@H]2C[C@H](C)[C@@H]3CC(=O)C(C)=C3C[C@H]12,2.07%,3.42%,9.23%,-6.55%,6.04%
CCCCNc1nc2c(-c3ccc(C)cc3)nnn2c2ccccc12,5.87%,2.41%,2.85%,4.19%,-0.189%
Cc1ccc(Cn2c(=O)c3ccc(C(=O)NC(C)C)cc3n3c(=O)n(CC(=O)NC(C)C)nc23)cc1,6.16%,4.97%,12.6%,3.76%,5.99%
Cc1cccc(N2CCN(S(=O)(=O)c3ccc4[nH]c(=O)[nH]c4c3)CC2)c1C,10.9%,0%,4.26%,-8.29%,0.675%
NCC(O)C1CCCCCCC1 (stereo not given),2.78%,8.83%,7.01%,-7.67%,-41.2%
O=C(OCC1=CC(Cl)C(O)C(OC(=O)c2ccccc2)C1O)c1ccccc1 (stereo not given),0%,6.51%,6.31%,-7.28%,4.45%
CN1CCN(C(=O)N2CCC3(CCCN(C4CCOCC4)C3=O)C2)CC1 (stereo not given),1.14%,-0.613%,1.81%,-3.59%,1.38%
COc1cccc(CN2CCC(Oc3ccc(-c4noc(C5CC5)n4)cc3)C2)c1 (stereo not given),-9.9%,-5.82%,-14.4%,-21.3%,-9.48%
CCc1cn(C[C@H](NC(=O)C2CCCC2)C(=O)O)c(=O)[nH]c1=O,-0.297%,2.06%,1.99%,-1.09%,-0.732%
COc1cc2c(cc1OC)N1C(=O)C[C@]34C=CCN5CC[C@@H]2[C@@H](CC3)[C@]514,-1.75%,8.98%,6.45%,-56.1%,3.05%
CC(C)CCNC(=O)c1cc2n(n1)CC(C)(C(=O)NCc1ccc(F)cc1)N(C)C2=O (stereo not given),4.7%,0.686%,-0.534%,6.57%,1.79%
COC(=O)C[C@@H]1C(C(=O)O)=CO[C@@H](O[C@@H]2O[C@H](CO)[C@@H](O)[C@H](O)[C@H]2O)/C1=C\COC(=O)/C=C\c1ccccc1,0%,-11.1%,-1.54%,-22.3%,-1.49%

SMILES,"activity change, negative = inhibition [1]","activity change, negative = inhibition [2]","activity change, negative = inhibition [3]","activity change, negative = inhibition [4]","activity change, negative = inhibition [5]"
CC1(C(=O)NC2CCCCC2)Cn2c(ccc2-c2ccco2)C(=O)N1CCCN1CCOCC1 (stereo not given),1.98%,4.86%,4.28%,8.25%,0.688%
Cn1cnc([S+](=O)([O-])N2CCN(C(=O)N3CC4CC(C3)[C@H]3CCCC(=O)N3C4)CC2)c1 (stereo not given in full),-7.35%,-13.4%,-5.58%,-16%,-16%
O=C(O)c1cc(N(Cc2ccc(C3CCCCC3)cc2)C(=O)c2ccc(Oc3ccccc3)cc2)ccc1O,-7.63%,-55.1%,-5.85%,-94.8%,-54.4%
CCO[C@H]1CN(Cc2cnc(SCc3ccccc3)nc2)C[C@@H]1O,-6.88%,-9.52%,-2.85%,-15.6%,-13.2%
CN1CCC(=C2c3ccccc3C=Cc3ccccc32)CC1,10.1%,14.3%,-9.76%,-15.1%,1.3%
CC1(C(=O)NC2CCCCCC2)Cn2c(c(-n3cccc3)c3ccccc32)C(=O)N1Cc1cccnc1 (stereo not given),-3.72%,4.22%,5.67%,-11.7%,0.894%
CCCn1c(=O)c2ccc(Cl)cc2n2c(=O)n(CC(=O)c3ccc(C)cc3)nc12,-0.458%,0.696%,-0.645%,2.71%,1.81%
C[C@@H]1CN(Cc2cc(C(N)=O)oc2C(C)(C)C)CC[C@@]1(O)C1CCC1,-4.81%,-3.12%,-3.13%,-6.77%,-3.16%
O=C(CSc1nnc2n(Cc3ccc(F)cc3)c(=O)c3ccccc3n12)NCc1ccccc1,1.57%,0%,9.21%,2.03%,2.18%
COc1cc2c(Nc3ccc(NC(=O)c4ccccc4)cc3)ncnc2cc1OCCCN1CCOCC1,-15%,8.38%,-10.9%,-11.2%,-2.64%
CC(CN1C(=O)c2cc3ccccc3n2CC1(C)C(=O)NCc1ccccc1)c1ccccc1 (stereo not given),1.26%,4.47%,-12%,1.77%,-3.89%
Cc1ccc(N2C(=O)c3ccc(-c4ccco4)n3CC2(C)C(=O)NC2CCCC2)cc1Cl (stereo not given),-2.01%,3.04%,2.44%,-0.6%,-4.59%
CC(C)Cn1c(=O)c2ccccc2n2c(=O)n(CC(=O)Nc3ccccc3F)nc12,-2.61%,-1.16%,2.72%,-11.4%,-2.92%
CC(=O)Nc1ccc(C(=O)Nc2ccccc2N)cc1,8.26% and -7.59%,7.1%,6.08% and 0.386%,-4.65% and -7.67%,4.77% and 25.3%
COc1ccc2[nH]cc(C(=O)Cn3nc4n(Cc5ccc(F)cc5)c(=O)c5ccccc5n4c3=O)c2c1,5.29%,0.133%,3.92%,1.35%,2.26%
O=S(=O)(NC[C@H]1O[C@@H](CO)[C@@H](O)[C@H]1N1CCN(c2ccc(F)cc2)CC1)c1ccc(F)cc1,0.424%,-3.63%,1.72%,-1.71%,0.571%
CC(C)(C)c1cc2n(n1)CC(C)(C(=O)NC1CCCCCC1)N(c1ccc(F)cc1F)C2=O (stereo not given),2.59%,0%,3.96%,1.55%,-0.161%
CC(C)(Cc1ccccc1)NCC(O)c1ccc(O)c(NS(C)(=O)=O)c1 (stereo not given),-1.37%,-6.67%,-5.19%,-14.1%,-8.18%
